Consider 90 compounds from PubChem BioAssay AID463173 (ICCB-Longwood Screening Facility, Harvard Medical School, 2010).

Among all 52,000 compounds or so, about 1,700 (3.3%) were called active. Cut-off read from the data, not from the text of the source: active = survival mostly below about 52% (no sharp cut-off); inactive = mostly above about 56%. The list shows a part of the results.

The assay concerns Wild type. The assay can be described thus: growth inhibition of S. aureus wild type versus tarO mutant, primary screen, teichoic acid synthesis inhibitors, RN4220, OD600 (AID 463173). To be noted: S. aureus RN4220 wild type/DeltatarO growth, OD600, 18 h, hits give low values, screened at 18.75 µg/mL (by protocol).
On to `CCOC(=O)C1CCCN(C(=O)c2nn(-c3ccc(C)cc3)c(=O)n(C)c2=O)C1` (stereo not given), for which the survival is inactive: 83%.

`COc1ccc(CC(=O)N2CCc3cc(OC)c(OC)cc3C2COc2ccc3c(C)cc(=O)oc3c2)cc1` (stereo not given): the survival was inactive: 133%.

Take `CC1CCN(C(=O)c2cc(-c3ccc(Br)cc3)on2)CC1`: the survival was inactive: 78%.

With `CCOc1ccc(NC(=O)CCNS(=O)(=O)c2cccc3nonc23)cc1`, the survival was inactive: 98%.

`COc1ccc(C2=NC(c3ccncc3)=Nc3ccc(OC)cc3N2)cc1`: the survival was inactive: 111%.

As to `COc1ccc(C2=C(C)C(=O)N(Cc3ccc(C(=O)NCc4cccc(C)c4)cc3)S2(=O)=O)cc1`, the survival was inactive: 117%.

Turning to `COc1ccc2c(c1)c(N1CCCC1=O)c(C(=O)Nc1ccccc1C(F)(F)F)n2C`, the survival was inactive: 88%.

As for `COc1ccc(-c2noc(N3CCC(C(=O)N4CCN(c5cccc(C)c5C)CC4)CC3)n2)cc1`, the survival was inactive: 70%.

With `O=C1[C@@H]2CSC(c3ccc(Cl)cc3)N2C(=O)N1c1ccccc1` (stereo not given in full), the survival is inactive: 79%.

`CC(C)c1ccc(N2C(=O)CSC23C(=O)N(C)c2ccccc23)cc1` (stereo not given): the survival was inactive: 71%.

In the case of `COc1ccc(-c2noc(COc3cc(C)ccc3C)n2)cc1OC`, the survival was active: 0%.

As for `O=C(COc1ccc(F)cc1)Nc1ccc2nc(SCC(=O)N3CCOCC3)sc2c1`, the survival is inactive: 96%.

For the compound `COc1cc2c(cc1OC)n(Cc1cccc(C(F)(F)F)c1)c(=O)n1nc(-c3ccccc3)nc21`, the survival was inactive: 108%.

In the case of `O=C(Oc1cccc2cccnc12)c1ccccc1`, the survival was active: 1%.

On to `Cc1cc(C)c(NC(=O)CN(C)S(=O)(=O)c2ccc3c(c2)CCC(=O)N3)c(C)c1`, for which the survival was inactive: 77%.

In the case of `O=C1CCCc2cc(S(=O)(=O)N3CCCC(C(=O)NCc4ccccc4)C3)ccc2N1` (stereo not given), the survival is inactive: 69%.

As for `CC(=O)c1cccc(NC(=O)c2nc(-c3ccccc3)n(-c3ccccc3)n2)c1`, the survival was inactive: 93%.

As for `COc1cccc(NC(=O)CCNS(=O)(=O)c2ccc3c(c2)oc(=O)n3C)c1`, the survival is inactive: 79%.

`COc1ccc(CNC(=O)c2cc3c(=O)n(Cc4ccco4)ccc3nc2C)cc1`: the survival was inactive: 74%.

Turning to `COc1nc(NCCO)nc(Nc2ccccc2F)n1`, the survival is inactive: 104%.

As to `O=C(CSCn1nnc2c(=O)[nH]c(Cc3ccc(F)cc3)nc21)Nc1cccc(C(F)(F)F)c1`, the survival was inactive: 87%.

On to `CC(=O)Nc1ccc(NC(=O)CCCn2nc(C)c3sc4ccccc4c3c2=O)cc1`, for which the survival is inactive: 86%.

For `CCOc1ccc(N(C)S(=O)(=O)c2ccc3c(c2)CCCN3C(C)=O)cc1`, the survival is inactive: 75%.

Turning to `CCOc1ccc(NS(=O)(=O)c2cc3c(cc2Cl)NC(=O)CO3)cc1`, the survival is inactive: 94%.

As to `Cc1cc(C)c(NC(=O)CCS(=O)(=O)c2cc3c(cc2Cl)NC(=O)CO3)c(C)c1`, the survival is inactive: 89%.

Turning to `CCC(C)NC(=O)C1CCN(S(=O)(=O)c2ccc3c(c2)CCCN3C(C)=O)CC1` (stereo not given), the survival was inactive: 60%.

Consider `CCn1cc(C(=O)N2CCN(c3ccc(C)cc3)C(C)C2)c(=O)c2cc(S(=O)(=O)N3CCCC3)ccc21` (stereo not given), for which the survival was inactive: 84%.

Turning to `CCc1ccccc1NC(=O)C(=O)NCCCN1CCOCC1`, the survival was inactive: 73%.

For `COc1cc2c(cc1OC)C(COc1cccc(C(F)(F)F)c1)N(C(=O)c1ccc(S(=O)(=O)N3CCCC3)cc1)CC2` (stereo not given), the survival was inactive: 77%.

With `Cc1nc2ccc(S(=O)(=O)N(CC(=O)Nc3ccc(F)cc3F)Cc3ccccc3)cc2s1`, the survival was inactive: 88%.

Regarding `CNC(=O)CCCN1C(=O)c2cccnc2Sc2ccccc21`, the survival is inactive: 82%.

With `CCOc1cc(C(=O)NCCc2sc(-c3ccc(F)cc3)nc2C)cc(OCC)c1OCC`, the survival is inactive: 140%.

With `O=C(Cn1c(SCc2ccccc2F)nc2ccncc21)Nc1ccccc1C(F)(F)F`, the survival was inactive: 44%.

As to `Cc1ccc(S(=O)(=O)Nc2cccc(-c3cn4cccc(C)c4n3)c2)c(C)c1`, the survival is inactive: 51%.

Take `O=C(Cn1c(=O)c2cccn2c2cccnc21)NCc1cccc(F)c1`: the survival is inactive: 85%.

As for `CCOc1ccc(NC(=O)c2ccc3[nH]c(C)c(C)c3c2)cc1`, the survival is inactive: 113%.

For `O=C(Cn1ccc2cc(S(=O)(=O)N3CCCCC3)ccc21)NCCc1ccccc1Cl`, the survival is active: -6%.

For the compound `COc1ccccc1NC(=O)Cn1c(=O)n(Cc2ccccc2)c(=O)c2c1c1cc(C)ccc1n2C`, the survival is inactive: 70%.

Consider `Cc1cccc(N2C(=O)c3cccc4c(N5CCNCC5)ccc(c34)C2=O)c1`, for which the survival is inactive: 87%.

With `Cc1ccccc1NC(=O)Cn1cc(C(=O)c2cccs2)c2ccccc21`, the survival is inactive: 102%.

Take `CCc1ccc(NC(=O)CSC2=Nc3ccccc3C3=NC(CCC(=O)NCc4ccccc4)C(=O)N23)cc1` (stereo not given): the survival was inactive: 124%.

In the case of `CCCCN(C)C(=O)c1cn(C)c2ccc(S(=O)(=O)N3CCC(C)CC3)cc2c1=O`, the survival was inactive: 86%.

With `CC(SC12CC3CC(CC(C3)C1)C2)C(=O)O` (stereo not given), the survival is inactive: 121%.

On to `CC(NC(=O)CSc1n[nH]c(-c2ccccc2Cl)n1)c1nc2ccccc2[nH]1` (stereo not given), for which the survival was inactive: 75%.

Turning to `COc1ccc(C(=O)CN2CCC(N3CCCCC3)CC2)cc1`, the survival was inactive: 106%.

For the compound `Cc1ccsc1CN1CCc2nc(Nc3ccccc3)ncc2C1`, the survival was inactive: 55%.

For the compound `CCCCC(=O)OC1=C(C(=O)c2ccccc2)N(CCC)S(=O)(=O)c2ccccc21`, the survival is inactive: 43%.

In the case of `CC1=C(C(=O)Nc2cccc(Cl)c2C)C2(CCCCCC2)OC1=O`, the survival is active: -2%.

With `CC1CCN(S(=O)(=O)c2ccc3c(c2)CCN3)CC1`, the survival is inactive: 135%.

Turning to `O=C(c1cnn(-c2ccc(F)cc2)c1-n1cccc1)N1CCN(c2ccc(F)cc2)CC1`, the survival was inactive: 68%.

Turning to `CCNc1nc(NCc2ccc(F)cc2)c2cnn(C)c2n1`, the survival is inactive: 94%.

Take `COc1ccc(S(=O)(=O)N2CCN(S(=O)(=O)c3ccccc3)CC2)cc1`: the survival was inactive: 105%.

On to `CCc1ccc(S(=O)(=O)c2nnn3c2nc(Nc2cc(OC)ccc2OC)c2sccc23)cc1`, for which the survival is inactive: 88%.

As to `COc1ccccc1Nc1sc(C(=O)c2ccc(C)cc2C)c(N)c1S(=O)(=O)c1ccccc1`, the survival is inactive: 76%.

As for `O=S(=O)(NCCS(=O)(=O)N1CCN(c2ccccc2)CC1)c1ccc(Br)cc1`, the survival was inactive: 77%.

Turning to `COc1ccc(CC(=O)Nc2sc3c(c2C(=O)Nc2ccccc2)CCCCC3)cc1`, the survival is inactive: 103%.

Turning to `O=C(NCC1CCCO1)C1CCCN1C(=O)Nc1ccc(Cl)cc1` (stereo not given), the survival is inactive: 91%.

Turning to `Cc1ccc(CCNC(=O)CS(=O)Cc2nc(-c3ccccc3Cl)oc2C)cc1` (stereo not given), the survival is inactive: 72%.

For the compound `Cc1c(C(=O)Nc2nc(-c3ccc(F)cc3)ns2)oc2ccc(Cl)cc12`, the survival was inactive: 83%.

Regarding `COc1ccccc1C(=O)Nc1ccccc1OCc1cc(=O)n2ccccc2n1`, the survival is inactive: 92%.

Consider `N#CC(C#N)=C(N)/C(C#N)=C/c1ccco1`, for which the survival was inactive: 120%.

Consider `Cc1cc(NC(=O)c2ccc(Cl)c(Cl)c2)ccc1NC(=O)c1ccco1`, for which the survival was inactive: 95%.

With `O=C(Cc1ccccc1)Nc1sc2c(c1C(=O)Nc1ccc(Br)cc1)CCC2`, the survival was inactive: 77%.

Take `Cc1ccc2oc(C(=O)Nc3cccc(Cl)c3)cc(=O)c2c1`: the survival was inactive: 111%.

With `O=C(NCCc1ccccc1)c1nc(-c2ccc(Cl)cc2)n2c1CCCCC2`, the survival is inactive: 72%.

For `CC1CCCCN1C(=O)c1cc(-c2ccccc2)on1` (stereo not given), the survival is inactive: 126%.

As to `O=C(Nc1ccc(F)cc1)c1csc2c1CCCCC2`, the survival was inactive: 68%.

Turning to `COc1cccc(N2CC(NC(=O)c3ccc(S(=O)(=O)N4CCOCC4)cc3)CC2=O)c1` (stereo not given), the survival is inactive: 121%.

Regarding `COc1ccc(CNc2nc3c(-c4ccccc4)nnn3c3ccccc23)cc1`, the survival was inactive: 90%.

For the compound `Cc1cc(C)cc(OCC(=O)Nc2c(C)ccc3nsnc23)c1`, the survival was inactive: 81%.

Consider `COc1ccc(S(=O)(=O)c2cnc3ccc(Cl)cc3c2N2CCCCC2C)cc1` (stereo not given), for which the survival is inactive: 23%.

For the compound `CC1CCCc2sc3nc(SCC(=O)c4ccc(Br)cc4)nc(N)c3c21` (stereo not given), the survival is inactive: 66%.

With `CCN(CC)C(=O)CSc1nsc(SCC(=O)N(CC)CC)c1C#N`, the survival was inactive: 102%.

Consider `Cc1ccccc1NC(=O)CSc1nc2nccnc2c(=O)n1CCc1c[nH]c2ccccc12`, for which the survival is inactive: 72%.

For the compound `Cc1cccc(N2CCN(C(=O)Cn3nc(C)n4cccc4c3=O)CC2C)c1` (stereo not given), the survival is inactive: 89%.

In the case of `CN(Cc1ccccc1)S(=O)(=O)c1nnc(NC(=O)c2cccc(Cl)c2)s1`, the survival is active: -1%.

For the compound `O=C(CSc1nnc(-c2cccc(F)c2)o1)N1c2ccccc2Sc2ccccc21`, the survival was inactive: 103%.

As for `Cc1sc2nc(CN3CCN(C(=O)c4ccco4)CC3)n(C(=O)c3ccco3)c(=O)c2c1C`, the survival is inactive: 116%.

In the case of `Cc1nc(NCCNC(=O)c2cccs2)c2c3c(sc2n1)CCCC3`, the survival is inactive: 108%.

As to `COc1ccc(NC(=O)CSc2nc(-c3ccco3)cc(C(F)(F)F)n2)cc1OC`, the survival was inactive: 85%.

For `CCOc1ccc(N(CC)S(=O)(=O)c2cc(Br)cc3c2N(C(C)=O)C(C)C3)cc1` (stereo not given), the survival was inactive: 68%.

Consider `Cc1cccc(NC(=O)CSc2nccn2Cc2ccc(F)cc2)c1C`, for which the survival was inactive: 71%.

For the compound `CCCCN(C)CCCNC(=O)Cn1ncc2c3ccccc3n(Cc3ccccc3)c2c1=O`, the survival is inactive: 123%.

As for `CCOC(=O)c1cc2c(nc1N)CC(C)(C)OC2`, the survival is inactive: 106%.

`O=C1CC(c2ccccc2)Sc2nc3ccccc3n21` (stereo not given): the survival was inactive: 115%.

`Cc1ccccc1NC(=O)c1ccc2c(c1)c(C)c(C)n2Cc1ccccc1`: the survival was inactive: 74%.

Regarding `O=C(CN1N=C(c2ccc(Cl)cc2)CCC1=O)NCCc1ccc(Cl)cc1`, the survival was inactive: 87%.

Take `COCc1nc2ccccc2n1CCOc1cccc(C)c1`: the survival is inactive: 53%.

Regarding `COc1ccc(S(=O)(=O)N2CCCN(CC(=O)Nc3ccc(NC(C)=O)cc3)CC2)cc1`, the survival is inactive: 68%.

With `CC(=O)c1cccc(NC(=O)c2oc3c(c2C)-c2nn(Cc4ccc(Cl)cc4)cc2CC3)c1`, the survival was inactive: 79%.
